# Test results published in the supplement of paper PMC4967469.
# What was measured:
# Assay in all cases: Viability of human cancer cell lines after 72 h of drug (GDSC screen)
# Midostaurin = compound: CO[C@@H]1[C@H](N(C)C(=O)c2ccccc2)C[C@H]2O[C@]1(C)n1c3ccccc3c3c4c(c5c6ccccc6n2c5c31)C(=O)NC4 [Midostaurin]; conditions: top dose 0.512 µM; top dose inferred
# Description: (§1)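 Human cancer cell lines in 384-well plates, medium with 10% serum, drug for 72 h over a 256-fold dose range (nine 2-fold or five 4-fold steps up to the top dose). Adherent lines were fixed and stained with the nucleic acid dye Syto60, suspension lines read with resazurin; signal relative to control wells, capped at 0 and 100%. One two-parameter sigmoid per drug and line, fitted in a mixed model over all curves with the slope shared within a line.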
# NVP-BHG712 = compound: Cc1ccc(C(=O)Nc2cccc(C(F)(F)F)c2)cc1Nc1nc(-c2cccnc2)nc2c1cnn2C [NVP-BHG712]; conditions: top dose 10.24 µM; top dose inferred
# Description: as §1
# Mitomycin C = compound: CO[C@@]12[C@H](COC(N)=O)C3=C(C(=O)C(C)=C(N)C3=O)N1C[C@@H]1N[C@@H]12 [Mitomycin C]; conditions: top dose 16 µM
# Description: as §1
# Bosutinib = compound: COc1cc(Nc2c(C#N)cnc3cc(OCCCN4CCN(C)CC4)c(OC)cc23)c(Cl)cc1Cl [Bosutinib]; conditions: top dose 2 µM
# Description: as §1
# Roscovitine = compound: CC[C@H](CO)Nc1nc(NCc2ccccc2)c2ncn(C(C)C)c2n1 [Roscovitine]; conditions: top dose 16 µM; top dose inferred
# Description: as §1
# IOX2 = compound: O=C(O)CNC(=O)c1c(O)c2ccccc2n(Cc2ccccc2)c1=O [IOX2]; conditions: top dose 0.1 µM; top dose inferred
# Description: as §1
Cell Line,AUC (Midostaurin),IC50 (Midostaurin),AUC (NVP-BHG712),IC50 (NVP-BHG712),AUC (Mitomycin C),IC50 (Mitomycin C),AUC (Bosutinib),IC50 (Bosutinib),AUC (Roscovitine),IC50 (Roscovitine),AUC (IOX2),IC50 (IOX2)
"NCI-H526 (small cell lung carcinoma, suspension)",0.906,> 512 nM,0.948,> 10200 nM,0.142,81.9 nM,0.907,> 2000 nM,0.922,> 16000 nM,0.989,> 100 nM
"NCI-H747 (large intestine, adherent)",0.914,> 512 nM,0.764,4500 nM,0.356,366 nM,0.972,> 2000 nM,0.949,> 16000 nM,0.979,> 100 nM
"NCI-H345 (small cell lung carcinoma, suspension)",0.99,> 512 nM,0.989,> 10200 nM,0.752,5570 nM,0.99,> 2000 nM,0.957,> 16000 nM,0.989,> 100 nM
"NCI-H2135 (non-small cell lung carcinoma, adherent)",0.946,> 512 nM,0.719,2600 nM,0.59,1750 nM,0.973,> 2000 nM,0.979,> 16000 nM,0.99,> 100 nM
"KNS-42 (glioma, adherent)",0.952,> 512 nM,0.889,> 10200 nM,0.514,1100 nM,0.984,> 2000 nM,0.94,> 16000 nM,0.977,> 100 nM
"GRANTA-519 (B-cell lymphoma, suspension)",0.961,> 512 nM,0.941,> 10200 nM,0.259,223 nM,0.868,1520 nM,0.987,> 16000 nM,0.989,> 100 nM
"NCI-H69 (small cell lung carcinoma, suspension)",0.907,> 512 nM,0.982,> 10200 nM,0.575,1650 nM,0.986,> 2000 nM,0.98,> 16000 nM,0.982,> 100 nM
"TUR (B-cell lymphoma, suspension)",0.853,354 nM,0.89,10200 nM,0.256,213 nM,0.959,> 2000 nM,0.985,> 16000 nM,0.984,> 100 nM
"L-363 (myeloma, suspension)",0.97,> 512 nM,0.953,> 10200 nM,0.434,679 nM,0.875,1510 nM,0.983,> 16000 nM,0.99,> 100 nM
"NALM-6 (B-cell leukaemia, suspension)",0.714,114 nM,0.615,1250 nM,0.039,< 62.5 nM,0.933,> 2000 nM,0.933,> 16000 nM,0.989,> 100 nM
"RPMI-6666 (Hodgkin lymphoma, suspension)",0.917,> 512 nM,0.554,923 nM,0.292,227 nM,0.865,> 2000 nM,0.875,> 16000 nM,0.976,> 100 nM
"ME-1 (acute myeloid leukaemia, suspension)",0.988,> 512 nM,0.605,1270 nM,0.672,3130 nM,0.959,> 2000 nM,0.989,> 16000 nM,0.988,> 100 nM
"WSU-NHL (lymphoid neoplasm, suspension)",0.881,425 nM,0.705,2230 nM,0.257,224 nM,0.803,851 nM,0.987,> 16000 nM,0.99,> 100 nM
"EW-13 (Ewing sarcoma, suspension)",0.845,432 nM,0.517,718 nM,0.14,63.5 nM,0.978,> 2000 nM,0.974,> 16000 nM,0.984,> 100 nM
"Calu-6 (lung adenocarcinoma, adherent)",0.967,> 512 nM,0.589,1160 nM,0.335,324 nM,0.984,> 2000 nM,0.903,> 16000 nM,0.982,> 100 nM
"LB1047-RCC (kidney, adherent)",0.722,149 nM,0.864,> 10200 nM,0.101,< 62.5 nM,0.814,1270 nM,0.934,> 16000 nM,0.957,> 100 nM
"KARPAS-45 (lymphoblastic leukaemia, suspension)",0.897,448 nM,0.492,612 nM,0.651,2420 nM,0.854,1190 nM,0.961,> 16000 nM,0.991,> 100 nM

Cell Line,AUC (Midostaurin),IC50 (Midostaurin),AUC (NVP-BHG712),IC50 (NVP-BHG712),AUC (Mitomycin C),IC50 (Mitomycin C),AUC (Bosutinib),IC50 (Bosutinib),AUC (Roscovitine),IC50 (Roscovitine),AUC (IOX2),IC50 (IOX2)
"ES6 (Ewing sarcoma, adherent)",0.934,> 512 nM,0.958,> 10200 nM,0.454,728 nM,0.932,> 2000 nM,0.922,> 16000 nM,0.942,> 100 nM
"LB2518-MEL (melanoma, adherent)",0.931,> 512 nM,0.773,4200 nM,0.413,571 nM,0.976,> 2000 nM,0.941,> 16000 nM,0.976,> 100 nM
"D-502MG (glioma, adherent)",0.96,> 512 nM,0.883,> 10200 nM,0.897,> 16000 nM,0.905,> 2000 nM,0.948,> 16000 nM,0.974,> 100 nM
"GT3TKB (stomach, adherent)",0.867,374 nM,0.987,> 10200 nM,0.275,252 nM,0.949,> 2000 nM,0.96,> 16000 nM,0.989,> 100 nM
"NCI-H2141 (small cell lung carcinoma, suspension)",0.952,> 512 nM,0.99,> 10200 nM,0.489,934 nM,0.989,> 2000 nM,0.941,> 16000 nM,0.99,> 100 nM
"IMR-5 (neuroblastoma, adherent)",0.891,432 nM,0.937,> 10200 nM,0.036,< 62.5 nM,0.978,> 2000 nM,0.954,> 16000 nM,0.991,> 100 nM
"NOS-1 (osteosarcoma, adherent)",0.842,486 nM,0.748,3960 nM,0.566,1580 nM,0.866,> 2000 nM,0.868,> 16000 nM,0.971,> 100 nM
"LB2241-RCC (kidney, adherent)",0.878,> 512 nM,0.923,> 10200 nM,0.195,108 nM,0.716,555 nM,0.911,> 16000 nM,0.981,> 100 nM
"WIL2-NS (lymphoid neoplasm, suspension)",0.96,> 512 nM,0.816,4390 nM,0.098,71.6 nM,0.977,> 2000 nM,0.919,> 16000 nM,0.992,> 100 nM
"SK-LMS-1 (soft tissue, adherent)",0.857,384 nM,0.856,7630 nM,0.386,494 nM,0.756,652 nM,0.987,> 16000 nM,0.974,> 100 nM
"Daudi (Burkitt lymphoma, suspension)",0.911,> 512 nM,0.775,3520 nM,0.337,376 nM,0.961,> 2000 nM,0.917,> 16000 nM,0.976,> 100 nM
"PL-21 (acute myeloid leukaemia, suspension)",0.965,> 512 nM,0.75,3850 nM,0.571,1620 nM,0.85,1930 nM,0.837,13400 nM,0.98,> 100 nM
"OCI-AML5 (acute myeloid leukaemia, suspension)",0.868,399 nM,0.716,2450 nM,0.198,142 nM,0.942,> 2000 nM,0.957,> 16000 nM,0.987,> 100 nM
"OS-RC-2 (kidney, adherent)",0.808,424 nM,0.896,> 10200 nM,0.333,278 nM,0.859,> 2000 nM,0.828,> 16000 nM,0.975,> 100 nM
"COLO-684 (endometrium, suspension)",0.951,> 512 nM,0.897,> 10200 nM,0.447,702 nM,0.967,> 2000 nM,0.922,> 16000 nM,0.983,> 100 nM
"AM-38 (glioma, semi-adherent)",0.926,> 512 nM,0.861,9010 nM,0.306,281 nM,0.988,> 2000 nM,0.982,> 16000 nM,0.987,> 100 nM
"D-263MG (glioma, adherent)",0.829,413 nM,0.983,> 10200 nM,0.401,505 nM,0.973,> 2000 nM,0.929,> 16000 nM,0.961,> 100 nM

# The IC50 comes from the fitted curve, where viability falls to half of the control; fits outside the tested doses are given as limits. AUC sums up the same curve from the lowest dose to the 256-fold higher top dose; values near 1 show little effect. For part of these data: A top dose marked as inferred is not printed in the source and was worked back from the curve model.
